Experimental data reported in PMC12136788.
This is one part of the list.

B1: chr8:74858975:74858976:-_ENSG00000154582_ENST00000284811|hu_mus|hu_hu_hu_mus_True|88_88 (ssRNA)
RNA: GGGAGUUCUACAGUCCGACGAUCGACCUUGUAGGUAAAAUACAUGCAUACUUUCGAUAGCACAUGUGAGGGGAUCUCUCUAAAAUUGACCUCGUUGGUUUCAUUCUCAGCAAACUGACCUGGACCACUCAACAUAGCCUUUAUCAACAGAGGAUUGAGCAUCA
B2: chr13:100518589:100518590:+_ENSG00000125246_ENST00000339105|hu_hu|motif|central (ssRNA)
RNA: GGGAGUUCUACAGUCCGACGAUCUUCUCGUGACUGUCUAAGCAGCCCAGCUCCAUCUCGAAAGUCAAUGUACACCAGAUCGGUGGCUUGGAGACCAAAGGCUUUCGCUAUGACAACAAUCUUUUGCCGGGCGUAGAGAAUAUCCAACAGAGGAUUGAGCAUCA
B3: chr5:33455709:33455710:+_ENSG00000113407_ENST00000502553|hu_hu|FALSE|FALSE (ssRNA)
RNA: GGGAGUUCUACAGUCCGACGAUCAGCUUGUUUUUCUUUAAUGAUUUUCUUACACAAAGCCUCCAGAGAAGAGAAAUCAUUGCUAGACACACCCCCUUCUUCGAGGUACAUGUCAUAAUAGAAUCCAUUUUCUAUUGGCGGACCCAACAGAGGAUUGAGCAUCA
B4: chr1:163112212:163112213:-_ENSG00000143248_ENST00000313961|hu_hu|hu_hu_hu_mus_False|1_38 (ssRNA)
RNA: GGGAGUUCUACAGUCCGACGAUCUUUUAUUAUCAGUAAGAGUGAGUUACAUACUAGGCAAAGUAUUGGAUACAAUAAUCAGGAAACAAACACUAUUUUUCUUGAAUUUAAAACUUUAUGAGCGAAGUGCUGGCACAGGAUUUACAACAGAGGAUUGAGCAUCA
B5: chr4:17845017:17845018:+_ENSG00000109805_ENST00000514176|hu_mus|hu_hu_hu_mus_False|48_88 (ssRNA)
RNA: GGGAGUUCUACAGUCCGACGAUCGCUCUCUUAACUUGUAUCUUCAUGAGAAAUUGGUGCAAGGUUAAGUUUACUUUUCUGUAGCGCGCGGUUUUGGGCUCGUCUGGGUAAUCUCAUCUUCAUUUCUGAUGGUGGUUCAUGAUCCAACAGAGGAUUGAGCAUCA
B6: chr4:117558906:117558907:-_ENSMUSG00000033379_ENSMUST00000036380|mus_hu|FALSE|FALSE (ssRNA)
RNA: GGGAGUUCUACAGUCCGACGAUCUGGAGGAGCCGGUAAUAUAGAUGCCCCAGGCUGCCCCAACCACAGACAGGGAGAUAGCUAGGCCAAUGCCCAGGUUGGACCACAUGAAGGGCGAAGUCUCCGUCAGGAACCUGUUGUGGACAACAGAGGAUUGAGCAUCA
B7: chr9:33280828:33280829:+_ENSG00000086065_ENST00000223500|hu_hu|FALSE|FALSE (ssRNA)
RNA: GGGAGUUCUACAGUCCGACGAUCUCCUAGUCCCAUAAUAUGUGUUUGUUUUACAAGAUAUGCUUGAAUGAUGCAAAUCUAUGAAGCAGGGAUCUGUGGCAAUCCAAAUUCAUCCACCAGAACUCCAUCCUUGUUUUUUGUAUCCAACAGAGGAUUGAGCAUCA
B8: 45071674_45071794_994_CDS_ENSMUSG00000048232_ENSMUST00000052236|mouse|control|control (ssRNA)
RNA: GGGAGUUCUACAGUCCGACGAUCAAUGUCACAGGUCCUUGGGCUCCAGGCCUGGUCCCGACUCUCUAAGUCCAAGGACAUUAAAAAGUCAUGGUCCUCUGCGGGGAGAAAGAUGGGUGAGGACUUGAUAAGGCCCAGCAGGUACAACAGAGGAUUGAGCAUCA
B9: chr11:103723314:103723315:-_ENSMUSG00000034187_ENSMUST00000103075|mus_mus|FALSE|FALSE (ssRNA)
RNA: GGGAGUUCUACAGUCCGACGAUCGACCAGCAGCUCUCCGUCAUCUAGGACUCGGGUCACGGGGUCACCCCACUUGAUGAUCCCAUUCAUAAUGUAACUUGCAUAAUCCUCUUGGUUGGUGCCAAAUGCUGGUUUGAUAUCGUUCAACAGAGGAUUGAGCAUCA
B10: chr17:65740002:65740003:+_ENSG00000130935_ENST00000581375|hu_hu|hu_hu_hu_mus_False|18_108 (ssRNA)
RNA: GGGAGUUCUACAGUCCGACGAUCAACCCGUUCUUGCUCCCUGGACGAACAGGAAGAUUCAUAUUAAAAAAAAUAUAUAUCCAUCAAGUUAGGUGUGGUGGCCACACCUUUACUCCCCACUUCAAUUGAGGUGGAUCUCUGAGUCAACAGAGGAUUGAGCAUCA
B11: chr3:104804989:104804990:-_ENSMUSG00000062127_ENSMUST00000098763|mus_hu|FALSE|FALSE (ssRNA)
RNA: GGGAGUUCUACAGUCCGACGAUCACACAUCAUUACAAUCUGUUGGCCAGUAACAGCUUUUGCAACAUGGGUUAAUACUAAAAUUGUGAAUCAUGGAACUUUUACUUAGCACACACACACACAAUCUACAGCAAACUUAAAUACCAACAGAGGAUUGAGCAUCA
B12: 79558433_79558884_1653_CDS_ENSMUSG00000042524_ENSMUST00000046259|mouse|control|control (ssRNA)
RNA: GGGAGUUCUACAGUCCGACGAUCAUCUCUCUGCAGGAGCCCGCUGCGCGCACCCCUGUCUCCAAGAAGGAACUGCCUGAUCCAGUCAGGGAACUGGGAUUCCACAUCAGCCCUGGCAGCCUGGAUCUUCUGUGGCAGCAGGCCCAACAGAGGAUUGAGCAUCA
B13: chr1:39494447:39494448:+_ENSG00000168653_ENST00000372967|hu_mus|hu_hu_hu_mus_False|8_58 (ssRNA)
RNA: GGGAGUUCUACAGUCCGACGAUCGCACCGAGCGGCGUUCUUAUAGGGCUGUUCUGCGCUUAGGAACAUAAAGUGCCGAUCUAUGUUGAUGCCCAGCUUUUUCUGUAUGUCAAGGAAAGGCAUGGCUGAUGCUCGUGCUUGUCACAACAGAGGAUUGAGCAUCA
B14: chr16:45382771:45382772:-_ENSMUSG00000022661_ENSMUST00000163230|mus_hu|FALSE|FALSE (ssRNA)
RNA: GGGAGUUCUACAGUCCGACGAUCCUGGGUCAUGUUAUAAGACAAAUGGACAGGGAGGGCAUGCUUCUCAAAAAAUGUGAGCUAUUGUCUAAGACUAACAAUAUUUAUCUAGCUAUAAAAAUAAGUUAAAUGAAUAAGUUAAGACAACAGAGGAUUGAGCAUCA
B15: chr16:94690093:94690094:+_ENSMUSG00000040785_ENSMUST00000117648|mus_hu|mus_mus_mus_hu_True|58_68 (ssRNA)
RNA: GGGAGUUCUACAGUCCGACGAUCGGGCUGGGAUGACGGACACACAGCCUCGAUUCCAGGGGGAAAAAAAAAUAGCCAAUACUAAUUAAAAAGUGUUAAUGAUUUUUGAAAAUCAGAUUACAUCUAUAAAAGAUGAAAAGCAAACAACAGAGGAUUGAGCAUCA
B16: chr10:35314101:35314102:-_ENSG00000108094_ENST00000537177|hu_hu|motif|central (ssRNA)
RNA: GGGAGUUCUACAGUCCGACGAUCUUCACCUGUACACAGAUAAUGUAACCAUGUAAGUUUCCUUCCACUGAAAUGUUGGCGGUAAAAUAAUUCAAACAUCUGUACACUUUUUUCUAAUUCCUGGGGAAUUGCAAACGUAGAUGACAACAGAGGAUUGAGCAUCA
B17: chr7:138056749:138056750:+_ENSMUSG00000040268_ENSMUST00000120441|mus_mus|FALSE|FALSE (ssRNA)
RNA: GGGAGUUCUACAGUCCGACGAUCGCAGUUUAUUCUCAAGUCAUUACAGUGUUCCACCGACUGGACAUACAGAGACAGCAGGGUAACAGUAAACAUUAGGAGGCACAUUCCUGUUCUGAAAGGAGAUACAUUAUACACACAGGGCAACAGAGGAUUGAGCAUCA
B18: 60531726_60532136_2099_CDS_ENSMUSG00000002812_ENSMUST00000002889|mouse|control|control (ssRNA)
RNA: GGGAGUUCUACAGUCCGACGAUCCUGCACCAGGAGUGUGAUUUCCGCCUUCCCUUUCCGCUCAUUCUUGUUUAUUUUCUCUGCAAAGAGCCUGGCCUUAGUCGUGUUACUCAGUGUGGCCUGGGCCCCCCGCCACACAUAAAUCAACAGAGGAUUGAGCAUCA
B19: chr4:115894766:115894767:+_ENSMUSG00000028698_ENSMUST00000030464|mus_hu|mus_mus_mus_hu_True|8_18 (ssRNA)
RNA: GGGAGUUCUACAGUCCGACGAUCUUCCACACGGAAAUGUACUUCGGGUUUUCCAACGGCCAGUACCAGUCCGGCCAAACUACCCGAACAGGGUCCUCCCCCUCUCUCCUACAGAACUAAAGCACCCAACAAAAUACUUUCAAGCAACAGAGGAUUGAGCAUCA
B20: chr19:36967278:36967279:+_ENSMUSG00000024811_ENSMUST00000025729|mus_mus|FALSE|FALSE (ssRNA)
RNA: GGGAGUUCUACAGUCCGACGAUCAUGGAAUGUGAUACAAGUAGACACUCAGAUGGGCAGAACACUACACACACACACAUACACAAAUUAAAUUUCACCUCAAAAAAAAAUCACAAGGCAAAAGAAAAAGCAAUUCCAUUAUUACAACAGAGGAUUGAGCAUCA
B21: chr1:39494564:39494565:+_ENSG00000168653_ENST00000372967|hu_hu|hu_hu_hu_mus_True|38_58 (ssRNA)
RNA: GGGAGUUCUACAGUCCGACGAUCAUGCAUUCGCCUCAUCGUUUUGUACCGAAGCAAGCACUCUUCGAAGUCAUCGAAUUCUAUCUUGCACUCCUUUUCUGCCCGAGUCCCACCGAUCCCGUGUGCACACUCUAUCCACUCUUUCAACAGAGGAUUGAGCAUCA
B22: chr12:120565580:120565581:-_ENSG00000089154_ENST00000300648|hu_hu|FALSE|FALSE (ssRNA)
RNA: GGGAGUUCUACAGUCCGACGAUCUGGAGGAGGCAAUUUUCAGUUGUGUGUGGGUUUGAUUUAAGGCUUUGGCUGUGGUCUAUUGAUAUUAAAAUACUUUCUGGGAACGCCAUCUUCCAAGCUCCCCAUUGGAACAAAUGUAUUCAACAGAGGAUUGAGCAUCA

What follows are binders tested against T1, UNK ZnF1-3 (human, UniProt Q9C0B0 31-174) (assay: nsRBNS (natural sequence RNA bind-n-seq); RBNS binding buffer (assumed for nsRBNS): 25 mM Tris pH 7.5, 150 mM KCl, 3 mM MgCl2, 0.01% Triton X-100, 500 ug/ml BSA, 20 U/ml SUPERase-In, 4 C; UNK is unkempt and MSI1 is Musashi-1; names of the RNAs are library labels; protein concentration not given here; high values mean tight binding).
T1 sequence: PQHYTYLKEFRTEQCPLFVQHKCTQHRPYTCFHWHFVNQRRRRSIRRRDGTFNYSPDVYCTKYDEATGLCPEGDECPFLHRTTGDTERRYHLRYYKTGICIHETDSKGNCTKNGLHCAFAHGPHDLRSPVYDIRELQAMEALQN
B1 was tested, and the binding signal was 0.83 enrichment R. In the case of B2, the binding signal is reported as 0.616 enrichment R. For B3, the binding signal was 1.22 enrichment R. B4 gave a binding signal of 1.33 enrichment R. B5 was tested, and the binding signal was 0.367 enrichment R. For B6, the binding signal was 1.05 enrichment R. With B7 the binding signal was 1.1 enrichment R. B8 gave a binding signal of 1.02 enrichment R. B9 showed a binding signal of 0.754 enrichment R. B10 gave a binding signal of 0.932 enrichment R. B11 gave a binding signal of 1.88 enrichment R. Binder B12 has a binding signal of 0.704 enrichment R. B13 was tested, and the binding signal was 0.781 enrichment R. B14 was tested, and the binding signal was 2.02 enrichment R. For B15, the binding signal was 1.91 enrichment R. With B16 the binding signal was 0.949 enrichment R. B17 showed a binding signal of 1.74 enrichment R. B18 was tested, and the binding signal was 0.682 enrichment R. In the case of B19, the binding signal is reported as 1.25 enrichment R. B20 showed a binding signal of 1.85 enrichment R. B21 was tested, and the binding signal was 0.706 enrichment R. B22 showed a binding signal of 1.61 enrichment R.
